Experimental data: PubChem BioAssay AID504339 (National Center for Advancing Translational Sciences (NCATS), 2011)
The whole screen tested about 390,000 compounds, of which about 17,000 (4.4%) were called active. This list was built around the results that the source calls inconclusive (neither active nor inactive); the mix of calls is not that of the screen. The call rests on the fitted dose curve; in most records, active means well fitted inhibition curve with a large enough effect; inconclusive means small, poorly fitted or top-dose-only effect; inactive means no such curve, though single readings can be large or run the other way. Where the call is inconclusive, the potency comes from a doubtful curve fit.

target: Lysine-specific demethylase 4A (Homo sapiens) (UniProt O75164); test: qHTS Assay for Inhibitors of JMJD2A-Tudor Domain; conditions: AlphaScreen JMJD2A-Tudor / H3K4me3 peptide binding; activity change, negative = inhibition: at 114 µM (top of the series); further: nearly all actives have a fitted effect of over 50% in size
On the % scale 0 is the no-effect control and ±100 the full control effect; potency means the concentration at half of the fitted maximal effect; tags describe the fitted curve by direction and shape.

Chain of UniProt O75164 (O75164 whole entry, looked up, the tested form may be a part): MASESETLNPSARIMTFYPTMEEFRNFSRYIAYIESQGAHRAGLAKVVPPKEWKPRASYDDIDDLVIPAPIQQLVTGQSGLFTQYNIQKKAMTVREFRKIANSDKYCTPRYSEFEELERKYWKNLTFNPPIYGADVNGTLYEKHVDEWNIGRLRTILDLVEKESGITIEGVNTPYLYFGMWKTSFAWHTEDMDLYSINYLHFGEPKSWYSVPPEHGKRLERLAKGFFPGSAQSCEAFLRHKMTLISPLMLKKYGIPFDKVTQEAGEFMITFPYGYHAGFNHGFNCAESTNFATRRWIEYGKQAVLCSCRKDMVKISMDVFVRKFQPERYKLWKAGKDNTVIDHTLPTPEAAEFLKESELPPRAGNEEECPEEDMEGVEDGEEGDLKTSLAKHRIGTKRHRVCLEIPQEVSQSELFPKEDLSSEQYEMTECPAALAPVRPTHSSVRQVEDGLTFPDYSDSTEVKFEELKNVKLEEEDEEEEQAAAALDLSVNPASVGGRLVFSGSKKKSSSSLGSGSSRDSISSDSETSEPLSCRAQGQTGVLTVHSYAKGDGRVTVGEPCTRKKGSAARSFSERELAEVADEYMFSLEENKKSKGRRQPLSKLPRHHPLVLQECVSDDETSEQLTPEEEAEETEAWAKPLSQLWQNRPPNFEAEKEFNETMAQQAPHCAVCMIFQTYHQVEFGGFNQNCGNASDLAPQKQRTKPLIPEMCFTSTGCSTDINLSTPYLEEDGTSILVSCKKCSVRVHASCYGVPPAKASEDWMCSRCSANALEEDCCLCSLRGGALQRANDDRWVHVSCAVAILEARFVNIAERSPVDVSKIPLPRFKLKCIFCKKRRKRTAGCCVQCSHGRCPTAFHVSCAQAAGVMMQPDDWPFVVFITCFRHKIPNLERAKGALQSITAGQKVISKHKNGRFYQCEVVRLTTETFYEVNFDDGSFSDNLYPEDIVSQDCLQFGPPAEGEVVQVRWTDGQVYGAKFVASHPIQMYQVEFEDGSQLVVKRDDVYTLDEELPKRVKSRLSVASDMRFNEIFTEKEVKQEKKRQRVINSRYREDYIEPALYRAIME

Structure (SMILES) | Potency | activity change, negative = inhibition
Cc1ccc(CNC(=O)C2CCCN(c3nn4cc(-c5ccc(C)cc5)nc4s3)C2)cc1 (stereo not given) | inconclusive: 50.1 µM [inhibitor, partial curve] | 
O=C(/C=C/c1ccc(Br)o1)Nc1nccs1 | active: 31.6 µM | 
O=C(Nc1ccc(Cl)c(S(=O)(=O)N2CCOCC2)c1)c1ccccc1-c1ccc(C(F)(F)F)cc1 |  | inactive: -12.5%
O=C1OC(c2ccccc2)/C(=C(/O)c2ccc(Cl)cc2)C1=O (stereo not given) | active: 25.1 µM | 
Cn1cccc1Cc1nnc(SCC(=O)N2CCc3ccccc32)n1CCc1ccccc1 | inconclusive: 50.1 µM [inhibitor, partial curve] | 
CCOc1cc(C(=S)N2CCOCC2)ccc1OC(=O)c1cccc(C)c1 | inconclusive: 56.2 µM [inhibitor, single point] | 
CC1CCCCC1NC(=S)NC(=O)c1cccs1 (stereo not given) | inconclusive: 56.2 µM [inhibitor, partial curve] | 
O=C(N[C@@H](Cc1c[nH]c2ccccc12)C(=O)O)c1ccccc1Cl | inconclusive: 25.1 µM [inhibitor, single point] | 
O=C(NC(=S)Nc1ncccn1)c1ccccc1Cl | inconclusive: 35.5 µM [inhibitor, partial curve] | 
CCn1nnnc1NC(=O)c1ccc2ccccc2c1 |  | inactive: -7.22%
COc1cc(CNc2ccccc2SC)ccc1O | active: 35.5 µM | 
O=C(COc1cccc2cccnc12)N/N=C/c1cccn1-c1ccc(F)cc1 | active: 20 µM | 
Cn1cc(S(=O)(=O)N2CCc3ccccc32)cc1C(=O)Nc1ccc(C(F)(F)F)cc1 | inconclusive: 12.6 µM [inhibitor, full curve] | 
COc1ccc(C2Nc3ccc(NC(=O)COC(C)=O)cc3C(=O)N2Cc2ccccc2)cc1COc1ccc(NC(C)=O)cc1 (stereo not given) | active: 79.4 µM | 
C/C(=N\N=c1/sc2ccccc2n1C)c1ccccn1 | inconclusive: 15.8 µM [inhibitor, full curve, poor fit] | 
CCN(CC)c1ccc(NC(=O)Cn2cc3c(n2)CCCC3)c(C)c1 | inconclusive: 25.1 µM [inhibitor, full curve] | 
CCOC(=O)C1(CC2CCCCO2)CCN(C(=O)Nc2cccc(SC)c2)CC1 (stereo not given) | inconclusive: 20 µM [inhibitor, full curve] | 
CCCN1C(=O)/C(=C\C=C2/C=CN(CC)c3ccccc32)SC1=S | inconclusive: 1.58 µM [inhibitor, full curve, poor fit] | 
CN(CCOc1ccccc1)CC(=O)Nc1ccc(Br)cc1F |  | inactive: 62.9%
COc1nc(N/N=C/c2ccc(-c3ccccc3[N+](=O)[O-])o2)nc(N2CCOCC2)n1 | inconclusive: 56.2 µM [inhibitor, partial curve] | 
COc1cc(/C=N/NC(=O)/C(=C\c2ccc([N+](=O)[O-])cc2)NC(=O)c2ccccc2)cc(OC)c1O | inconclusive: 17.8 µM [inhibitor, full curve, poor fit] | 
Cc1ccc(O)c(NC(=O)C2=CC(c3cccs3)=NS(=O)(=O)N2C)c1 | inconclusive: 50.1 µM [inhibitor, partial curve] | 
CC(C)N(Cc1nccn1C)C(=O)c1cc(COc2ccc(F)cc2Cl)on1 |  | inactive: -13.1%

Structure (SMILES) | Potency | activity change, negative = inhibition
COc1ccc(OC)c(CN2CCN(C(=O)c3ccco3)CC2)c1 | active: 0.794 µM | 
Cc1[nH]cnc1C(=O)N/N=C/c1c(Cl)cccc1Cl |  | inactive: -27.4%
CCOC(=O)c1nn(-c2cccc(Cl)c2)c2nc(CC(C)C)c(C#N)c(=O)n12 |  | inactive: -4.5%
COc1ccc(CCNC(=O)c2c(Nc3ccccc3C)sc(C(=O)c3ccccc3)c2N)cc1OC | inconclusive: 39.8 µM [inhibitor, partial curve] | 
Cc1nc(N2CCCCC2)sc1C(=O)c1ccc(SCCO)c([N+](=O)[O-])c1 | active: 12.6 µM | 
CC(C)n1c(SCC(=O)c2ccc(F)cc2)nc2c(sc3ccccc32)c1=O | inconclusive: 79.4 µM [inhibitor, partial curve] | 
O=C(O)CSc1nnc(CNc2ccc(Cl)cc2)n1Cc1ccccc1 | active: 79.4 µM | 
COc1ccc(-c2nn(C)c3sc(C(=O)Nc4cc(OC)c(OC)c(OC)c4)cc23)cc1OC | inconclusive: 11.2 µM [inhibitor, full curve] | 
COc1cc(C2C(C(=O)c3ccc(C)o3)=C(O)C(=O)N2CCN2CCOCC2)ccc1OCCC(C)C (stereo not given) | inconclusive: 35.5 µM [inhibitor, partial curve] | 
O=C(O)c1ccccc1N/N=C/c1cc(Br)cc(Br)c1O | inconclusive: 63.1 µM [inhibitor, partial curve] | 
Cc1ccc(/C=C2/NC(=O)N(Cc3ccccc3)C2=O)o1 | inconclusive: 79.4 µM [inhibitor, single point] | 
CCS(=O)(=O)N1CCC(NC(=O)C(Cc2ccc(OC)c(OC)c2)NC(C)=O)CC1 (stereo not given) |  | inactive: -0.997%
O=C(NNc1ccc(C(F)(F)F)cc1[N+](=O)[O-])c1ccc(NS(=O)(=O)c2ccc(F)cc2)cc1 | active: 22.4 µM | 
Cc1ccc(N=C2c3ccccc3C(=O)C2[N+](=O)[O-])cc1C (stereo not given) |  | inactive: -27.2%
CCOC(=O)N1CCc2c(sc3c2C(=O)NC(c2cc(OC)c(O)c(OC)c2)N3)C1 (stereo not given) | inconclusive: 50.1 µM [inhibitor, partial curve] | 
COc1ccc(-c2ccc(C(=S)N3CCN(C(C)=O)CC3)o2)cc1 | inconclusive: 56.2 µM [inhibitor, partial curve] | 
CCOc1ccc(NC(=O)NCc2ccc3c(c2)CCN3C(C)=O)cc1 |  | inactive: -8.31%
CCN(CC)C(=O)CSc1nnc(-c2ccccc2)n1-c1ccccc1 | active: 50.1 µM | 
CC#CCN1C(=O)N[C@@H](c2ccccc2)C(C(=O)OC)=C1C | inconclusive: 15.8 µM [inhibitor, full curve, poor fit] | 
COc1cc(CN2CCCCCC2)cc(Br)c1O | active: 22.4 µM | 
COc1cc(NC2c3ccccc3C(=O)N2Cc2ccc3c(c2)OCO3)cc(OC)c1 (stereo not given) | inconclusive: 56.2 µM [inhibitor, partial curve] | 
COc1ccc(-c2nc3c4ccccc4n(CC(=O)N4CCN(c5ccc(F)cc5)CC4)c(=O)n3n2)cc1 |  | inactive: -11.7%
